# From paper PMC4710663
# No constants are given. Whether binding was seen depends on the method and setting. For part of these data: In cells and extracts the contact can be indirect. Some entries that bind do so weakly or less than the wild type. For part of these data: Sequences can lack the tags named with a protein.
# Key:
# [1] = target: T1, ATOH8 (yeast-2-hybrid screen) (human) (UniProt Q96SQ7); assay: two-hybrid; yeast-2-hybrid screen, data not shown
# T1 sequence: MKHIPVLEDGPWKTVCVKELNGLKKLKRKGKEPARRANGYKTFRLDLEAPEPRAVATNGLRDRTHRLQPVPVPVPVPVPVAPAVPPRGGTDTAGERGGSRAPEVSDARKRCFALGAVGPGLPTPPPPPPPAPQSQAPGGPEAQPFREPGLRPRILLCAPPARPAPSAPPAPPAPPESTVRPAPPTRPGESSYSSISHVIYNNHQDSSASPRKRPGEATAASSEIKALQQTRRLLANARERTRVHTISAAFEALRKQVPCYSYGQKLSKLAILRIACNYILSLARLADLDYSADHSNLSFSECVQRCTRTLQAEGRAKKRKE
# [2] = target: T2, GST-ATOH8 fusion protein (human) (UniProt Q96SQ7); assay: pull-down; GST fusion protein on glutathione beads as bait, incubated with lysate of Cos7 or HEK293T cells expressing the ECFP or EYFP fusion protein, 2-4 h at 4 °C; Western blot with EGFP antibody; only the target purified
# T2 sequence: T1 sequence
# [3] = target: T3, ATOH8-ECFP fusion protein (human) (UniProt Q96SQ7); assay: co-IP; COS7 cells co-transfected; lysate (PBS, 1 % Triton, protease inhibitor, NaF, Na3VO4) on GFP-trap_A beads, 2 h at 4 °C; Western blot
# T3 sequence: T1 sequence
substance,measurement,setting,value
PPP3CB (yeast-2-hybrid screen) (from UniProt P16298 1-524),binding,[1],binds
EYFP-PPP3CA (from UniProt Q08209-1 1-521),binding,[2],no binding
"constitutively active PPP3CB (P1-401), expressed in mammalian cells (from UniProt P16298-4 1-401) (domain or fragment)",binding,[3],binds
